The text below walks through data of PubChem BioAssay AID1159614 (National Center for Advancing Translational Sciences (NCATS), 2016).

The campaign covered roughly 45,000 compounds. About 65 (0.1%) were called active. The call rests on the fitted dose curve; in most records, active means well fitted activation curve with a large enough effect; inconclusive means small, poorly fitted or top-dose-only effect; inactive means no such curve, though single readings can be large or run the other way. The list shows a part of the results.

The target in this assay is Galactocerebrosidase (Homo sapiens) (UniProt P54803). The assay can be described thus: A Novel Cell-Based Assay to Identify Small Molecules for B -Galactocerebrosidase. Further: 0% is about no effect; nearly all actives have a fitted effect of over 65% in size. Particulars: 145M-Twi-hGALC-G270D cells (Twitcher mouse brain line with human GALC G270D), HMU-beta-Gal fluorescence, 48 h; series mostly up to 57.5 µM; activation: at the top concentration. In short, it runs like this: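 Fluorescence readout: HMU-β-gal cleavage by mutant GALC (0.1 mM final, citrate/phosphate pH 5.2 with 1 mg/mL taurocholate), stopped with carbonate/bicarbonate plus Triton X-100. Cells: murine Twitcher 145M-Twi expressing human G270D GALC; qHTS for activators.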
Chain of UniProt P54803 (P54803 whole entry, looked up): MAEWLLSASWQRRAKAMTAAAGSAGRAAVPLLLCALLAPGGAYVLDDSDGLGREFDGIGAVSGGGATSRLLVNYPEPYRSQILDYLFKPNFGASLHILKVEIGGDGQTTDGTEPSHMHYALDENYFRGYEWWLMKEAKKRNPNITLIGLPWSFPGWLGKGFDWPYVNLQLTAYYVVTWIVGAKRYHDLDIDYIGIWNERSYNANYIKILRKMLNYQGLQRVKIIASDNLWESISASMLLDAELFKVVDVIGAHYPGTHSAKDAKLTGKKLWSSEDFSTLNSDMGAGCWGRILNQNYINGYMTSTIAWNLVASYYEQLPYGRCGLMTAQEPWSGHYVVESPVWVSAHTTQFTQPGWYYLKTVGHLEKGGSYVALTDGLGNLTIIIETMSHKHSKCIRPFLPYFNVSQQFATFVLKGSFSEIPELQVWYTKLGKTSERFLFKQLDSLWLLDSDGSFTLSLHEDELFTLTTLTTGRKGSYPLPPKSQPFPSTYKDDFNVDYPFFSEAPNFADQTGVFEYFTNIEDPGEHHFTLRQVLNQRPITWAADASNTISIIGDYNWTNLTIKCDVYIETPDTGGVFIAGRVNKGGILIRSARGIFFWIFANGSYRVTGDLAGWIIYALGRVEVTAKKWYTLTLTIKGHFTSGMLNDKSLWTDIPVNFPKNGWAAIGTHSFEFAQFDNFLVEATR
In the case of `Cc1ccc(NC(=O)N2CCN(C(=O)c3nsc4ccccc34)CC2)cc1C`, the “activation” value is inactive: 5.89%. Consider `COCCNS(=O)(=O)c1cc(-c2nn3c(C)nnc3c3ccccc23)ccc1C`, for which the “activation” value is inactive: -3.49%. Consider `Cc1cc(C)c2oc(C(=O)NCCc3ccc(S(N)(=O)=O)cc3)cc(=O)c2c1`, for which the “activation” value is inactive: -7.09%. On to `CC(C)(C)c1ccc(C(=O)NC2=NC(c3cccc(F)c3)CC(=O)N2)cc1` (stereo unspecified), for which the “activation” value was inactive: -9.51%. In the case of `COC(=O)C1=C(C)NC(C)=C(C(=O)OC(C)(C)CN(C)CCC(c2ccccc2)c2ccccc2)C1c1cccc([N+](=O)[O-])c1` (stereo unspecified), the “activation” value was inactive: -14.2%. `O=C1CC(c2ccccc2)Cc2[nH]c(=O)c(-c3nc(-c4ccc(Cl)c(Cl)c4)cs3)cc21` (stereo unspecified): the “activation” value was inactive: -9.85%.

On to `COc1ccc(Cl)cc1NC(=O)C(=O)NCc1ccc(Cl)cc1`, for which the “activation” value is inactive: -17.9%. As for `Cc1ccc(OC(=O)CSc2nnc(-c3ccc4c(c3)OCO4)o2)c(C)c1`, the figure is inactive: 3.24%.

As for `CCOc1ccccc1NC(=O)N1CC(C)Oc2ccc(Cl)cc21` (stereo unspecified), the “activation” value is inactive: 21.6%. Regarding `CCOC(=O)c1cnc(NCc2ccc(OC)cc2OC)c2ccccc12`, the “activation” value is inactive: -2.74%.

Take `Cc1cccn2c(=O)cc(COc3ccc(NC(=O)COc4ccc(F)cc4)cc3)nc12`: the “activation” value was inactive: -9.78%. Turning to `Cc1cccc(CCn2c(=O)c3ccccc3n(Cc3ccccc3C)c2=O)c1`, the “activation” value is inactive: -9.79%. `COc1cccc(-c2nc3c(c(SCC(=O)Nc4cccc(C)c4C)n2)Cc2c(CO)cnc(C)c2O3)c1`: the “activation” value is inactive: 1.17%.

`COc1cccc(NC(=O)CN2C=NS(=O)(=O)c3ccccc32)c1`: the “activation” value is inactive: -20%. As for `Cc1ccc(C(=O)c2sc(Nc3ccc(F)cc3)c(C#N)c2N)cc1`, the figure is inactive: -16.7%; as for `O=C(O)CCc1ccc(-c2ccc(Br)cc2)n1-c1ccccc1O`, inactive: -19.6%; as for `CCOC(=O)C1CCN(c2cc3c(cc2NC(=O)c2ccccc2Cl)n(C)c(=O)n3C)CC1`, inactive: -13.4%. Turning to `CNC(=O)C1CCCN(c2nnc(C)c3c(C)n(-c4ccccc4)nc23)C1` (stereo unspecified), the “activation” value was inactive: -18.7%. The value for `CCOCCCNC(=O)c1ccc(-c2nc(CS(=O)(=O)c3ccccc3)c(C)o2)cc1` was inactive: 2.81%. With `COc1ccc(-c2nc3sc(CCNC(=O)C(C)(C)C)c(C)n3n2)cc1`, the “activation” value was inactive: -23.1%.

Regarding `Cc1cc2nc(-c3ccc(NC(=O)c4ccc(OCC(C)C)cc4)cc3)oc2cc1C`, the “activation” value was inactive: -0.631%. Consider `O=C(Nc1ccc(F)c(Cl)c1)c1cc(S(=O)(=O)NCc2ccc3c(c2)OCO3)ccc1F`, for which the “activation” value was inactive: -3.93%.

On to `CCOc1cccc2sc(N(Cc3cccnc3)C(C)=O)nc12`, for which the “activation” value is inactive: -4.39%. With `CCCCN(CC)CCNC(=O)Cn1cnc2sc(C)c(S(=O)(=O)N3CCN(c4ccccc4OC)CC3)c2c1=O`, the “activation” value is inactive: -26.1%. On to `CCOc1ccc2nc(N3CCCC(C(=O)NCCc4ccc(OC)cc4OC)C3)sc2c1` (stereo unspecified), for which the “activation” value is inactive: -16.4%.

For `CCOc1ccc(N2CC(c3nc4ccccc4n3CCOc3ccc(OC)cc3)CC2=O)cc1` (stereo unspecified), the “activation” value is inactive: -20.2%.
